# Measurements as given in PubChem BioAssay AID1745853 (National Center for Advancing Translational Sciences (NCATS), 2022).
# Where “and” joins values, the source holds several entries; their conditions need not be identical. Equal values may be shown once. The list shows a part of the results. These are further read-outs of the screen, such as a control signal, another cell line or another target. No call is given for them.
# Key:
# Assay in all cases: Primary Screen for Target Class Profiling of Small Molecule Inhibitors of Methyltransferases
# [1] = biological target: Glycine N-methyltransferase (Homo sapiens) (UniProt Q14749); conditions: purified enzyme, MTase-Glo SAH luminescence; measured here: GNMT inhibition; at 40 µM; stronger effect = lower value
# Outline: (§1)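 Each enzyme was assayed with SAM and its substrate. SAH formation detected by MTase-Glo luminescence; single-point 40 uM screen[…].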
# [2] = biological target: Guanidinoacetate N-methyltransferase (Homo sapiens) (UniProt Q14353); conditions: purified enzyme, MTase-Glo SAH luminescence; measured here: GAMT inhibition; at 40 µM; stronger effect = lower value
# Outline: as §1
# [3] = biological target: Histamine N-methyltransferase (Homo sapiens) (UniProt P50135); conditions: purified enzyme, MTase-Glo SAH luminescence; measured here: HNMT inhibition; at 40 µM; stronger effect = lower value
# Outline: as §1
# [4] = biological target: Nicotinamide N-methyltransferase (Homo sapiens) (UniProt P40261); conditions: purified enzyme, MTase-Glo SAH luminescence; measured here: NNMT inhibition; at 40 µM; stronger effect = lower value
# Outline: as §1
# [5] = biological target: Phenylethanolamine N-methyltransferase (Homo sapiens) (UniProt P11086); conditions: purified enzyme, MTase-Glo SAH luminescence; measured here: PNMT inhibition; at 40 µM; stronger effect = lower value
# Outline: as §1
# On the % scale 0 is the no-effect control and ±100 the full control effect.
SMILES,"activity change, negative = inhibition [1]","activity change, negative = inhibition [2]","activity change, negative = inhibition [3]","activity change, negative = inhibition [4]","activity change, negative = inhibition [5]"
CCOc1ccccc1CN1C(=O)c2cc3sccc3n2CC1(C)C(=O)NC1CCCC1 (centres undefined),-5.65%,2.4%,-10%,-8.67%,-6.26%
CCc1cc2c(cc3n2CC(C)(C(=O)NC2CCC(C)CC2)N(Cc2ccc(OC)cc2)C3=O)s1 (centres undefined),-4.95%,3.33%,-2.77%,-2.11%,-2.55%
C=C1/C(=C/C=C2\CCC[C@@]3(C)C2CCC3[C@H](C)/C=C/[C@@H](O)C2CC2)C[C@@H](O)C[C@@H]1O (some centres undefined),-20.9%,,-12.1%,,
O=C(c1ccc(F)cc1)C1CCN(CCn2c(=O)[nH]c3ccccc3c2=O)CC1,-21% and -1.68%,-0.24% and -8.09%,-2.58% and 11.5%,-12.9% and -14.6%,-1.39% and -1.31%
C=CC(C)(CCC=C(C)C)O[C@@H]1O[C@H](CO)[C@@H](O)[C@H](O)[C@H]1O (some centres undefined),0.5%,-3.62%,5.93%,-15.7%,3.64%
CC1=CC2C(CC1OC1OC(CO)C(O)C(O)C1O)C(C)CC(=O)C2C(C)C (centres undefined),2.31%,-0.624%,10.5%,-13.6%,-8.51%
COCCOC1CN(C2CCN(S(C)(=O)=O)CC2)C12CCCCC2 (centres undefined),-6.02%,-10.5%,-3.12%,-10.9%,-9.91%
CC(C)CCCCC(=O)N[C@@H](CO)C(=O)N[C@@H](CC(C)C)C(=O)[C@@]1(CO)CO1,0.46%,2.49%,4.71%,-7.77%,-2.23%
Cn1c(=O)n(C)c2cc(S(=O)(=O)NCCC(=O)O)ccc21,5%,0%,8.6%,11.2%,2.83%
O=C(NCc1ccco1)[C@@H]1Cc2nc[nH]c2CN1CCCc1ccccc1,-5.08%,-6.19%,-0.165%,-6.72%,0.372%
COc1cccc(-c2noc(-c3ccc(-c4cn[nH]c4)nc3)n2)c1OC,-6.85%,-6.81%,-4.78%,-18.7%,-11.8%
C[C@@H]1O[C@@H](O[C@H]2[C@H](O[C@H]3[C@H](O[C@H]4CC[C@@]5(C)C(CC[C@]6(C)C5CC=C5[C@@H]7CC(C)(C(=O)O)C[C@@H](O)[C@]7(C)CC[C@]56C)[C@@]4(C)CO)O[C@H](C(=O)O)[C@@H](O)[C@@H]3O)O[C@H](CO)[C@H](O)[C@@H]2O)[C@H](O)[C@H](O)[C@H]1O (some centres undefined),-2.69%,-2.71%,7.67%,-18.9%,3.18%
O=C(CSc1nnc2n(Cc3ccccc3)c(=O)c3ccccc3n12)Nc1ccccc1F,1.15%,0%,12.4%,5.95%,2.68%
Cn1c(=O)n(C)c2cc(S(=O)(=O)Nc3ccc(OCc4ccccc4)cc3)ccc21,-27.8%,4.84%,-1.9%,0.654%,-0.356%
COc1ccccc1-n1cnc2cccnc21,-2%,1.11%,-1.77%,-17.2%,1.29%
O=C(COC(=O)C(Cc1c[nH]c2ccccc12)NC(=O)c1ccc(Cl)cc1)c1ccccc1 (centres undefined),3.45%,0%,-1.79%,-5.42%,-1.18%
COc1ccc(C(O[C@@H]2O[C@H](CO)[C@@H](O)[C@H](O)[C@H]2O)C(CO)Oc2ccc(/C=C/CO)cc2OC)cc1O (some centres undefined),0%,-3.04%,-0.096%,-13.8%,2.91%
CC1(C(=O)NC2CCCCCCC2)Cn2c(cc3occc32)C(=O)N1c1ccc(Cl)cc1 (centres undefined),-1.8%,0%,8.34%,-1.37%,3.39%
COc1ccc(OC)c(S(=O)(=O)N2CCc3nc(-c4ccc(F)cc4)ncc3C2)c1,13.3%,2.34%,11.1%,6.56%,9.98%

SMILES,"activity change, negative = inhibition [1]","activity change, negative = inhibition [2]","activity change, negative = inhibition [3]","activity change, negative = inhibition [4]","activity change, negative = inhibition [5]"
CCCCNC(=O)CCc1nnc2n(Cc3ccc(Cl)cc3)c(=O)c3ccccc3n12,1.94%,4.18%,4.74%,7.64%,1.64%
CC12C(=O)OC(=O)C1(C)C1CCC2O1 (centres undefined),7.85%,12.2%,13.2%,-1.4%,2.35%
CC(C)Cn1c(=O)c2ccccc2n2c(CCC(=O)N3CCC(Cc4ccccc4)CC3)nnc12,-36.2%,0%,6.69%,-27.5%,0.948%
O=C(NCc1ccc(F)cc1)c1cnc2n[nH]c(-c3ccccc3)c2n1,-20%,-20.2%,-18.9%,-28.8%,-22.6%
CC(Cn1cncn1)Nc1ccc(-c2nc(Cc3ccc(F)cc3)no2)cn1 (centres undefined),-3.13%,-0.508%,-1.05%,-6.56%,-1.41%
Nc1nc2c(ncn2COC(CO)CO)c(=O)[nH]1,-2.41%,8.11%,1.47%,-2.33%,8.21%
CC(C)=CCC/C(C)=C/CO[C@@H]1O[C@H](CO)[C@@H](OC(=O)/C=C/c2ccc(O)cc2)[C@H](O[C@@H]2O[C@@H](C)[C@H](O)[C@@H](O)[C@H]2O)[C@H]1O,0.329%,1.09%,5.79%,-8.75%,-3.89%
CC(=O)N1Cc2ccccc2CC2(CCN(Cc3ccc(O)cc3)CC2)C1,-7.34%,-8.21%,-12.1%,-23.2%,-9.29%
O=C1N(C2CCCCC2)C[C@H]2CN(S(=O)(=O)c3ccccc3)CCN12,0.295%,7.31%,1.36%,-2.99%,-1.91%
CC(C)=CCC[C@](C)(O[C@@H]1O[C@H](CO[C@@H]2OC[C@H](O)[C@H](O)[C@H]2O)[C@@H](O)[C@H](O)[C@H]1O)[C@H]1CC[C@]2(C)[C@@H]1[C@H](O)C[C@@H]1[C@@]3(C)CC[C@H](O[C@@H]4O[C@H](CO)[C@@H](O)[C@H](O)[C@H]4O[C@@H]4O[C@H](CO)[C@@H](O)[C@H](O)[C@H]4O)C(C)(C)[C@@H]3CC[C@]12C,4.14%,,9.06%,,
CC(C)CCn1c(=O)c2ccc(C(=O)NC(C)C)cc2n2c(=O)n(CC(=O)NC3CCCCC3)nc12,4.23%,4.41%,6.32%,0.769%,-0.609%
CC(C)c1ccc(C(O)Cn2ccn3nc(-c4ccc(F)cc4)cc3c2=O)cc1 (centres undefined),-1.7%,1.2%,-1.03%,2.06%,1%
CC1(C(=O)NCc2ccccc2)Cn2c(nc3ccccc32)C(=O)N1Cc1ccc(Cl)cc1 (centres undefined),2.08%,0.679%,3.04%,3.7%,0.228%
COc1cccc(C2=NOC(C(=O)NCc3ccccn3)C2)c1 (centres undefined),-4.95%,3.41%,-0.174%,6.77%,-5.88%
CCOCCCNC(=O)C1c2c(n(C)c3ccccc23)SCC(=O)N1c1ccc(OC)cc1 (centres undefined),12.7%,2.25%,5.86%,0.269%,12.3%
COc1ccc(CCNS(=O)(=O)c2ccc3[nH]c(=O)[nH]c3c2)cc1OC,-4.26%,2.08%,11.5%,3.37%,1.95%
Cc1cccc(C(C)C)c1NC(=O)Cn1c(=O)oc2cc(S(=O)(=O)N3CCCC3)ccc21,-2.75%,4.36%,-1.96%,1.48%,-4.54%
COc1c2c(c(C)c3c1C(=O)OC3)OC1(C)CC(O)C3(O)C(C)(C)OC(=O)CCC3(C)C1C2 (centres undefined),0.113%,5.95%,9.13%,-6.67%,5.26%
O=C(NCCC1CCN(S(=O)(=O)c2ccccc2)CC1)NCc1ccco1,3.45%,1.43%,1.07%,0.34%,4.23%

SMILES,"activity change, negative = inhibition [1]","activity change, negative = inhibition [2]","activity change, negative = inhibition [3]","activity change, negative = inhibition [4]","activity change, negative = inhibition [5]"
Cc1cccc(OCC(=O)Nc2ccc3c(c2)C(=O)N(C)C2=NCCN23)c1,3.67%,0%,9.97%,6.88%,6.3%
CC1(C(=O)NC2CCCCCC2)Cn2c(cc3sccc32)C(=O)N1c1cccc(Cl)c1 (centres undefined),-0.701%,3.27%,-2.91%,-1.32%,-4.31%
CCCn1c(=O)c2cc(F)ccc2n2c(SCC(=O)NC3CCCC3)nnc12,-2.74%,0%,3.42%,4.89%,3.53%
Cc1ccc(C)c(N2CCN(S(=O)(=O)c3cc4c(cc3C)n(C)c(=O)n4C)CC2)c1,-1.69%,4.97%,-5.14%,-7.43%,-0.614%
O=C(c1ccccn1)N1CCC2(CC(c3cccc(C(F)(F)F)c3)=NO2)C1 (centres undefined),0.934%,1.97%,1.34%,-1.06%,13.2%
Cc1cccc(CNC(=O)c2cc3n(n2)CC(C)(C(=O)NCc2ccccc2)N(C)C3=O)c1 (centres undefined),4.09%,0%,-0.239%,-0.328%,-3.44%
COc1ccccc1CNC(=O)C1(C)Cn2c(cc3ccccc32)C(=O)N1CCCc1ccccc1 (centres undefined),-7.17%,-0.388%,-1.76%,-12.9%,-4.47%
CN1C(=O)c2cc(C(=O)NCCCN3CCCC3=O)nn2CC1(C)C(=O)NC1CCCCCC1 (centres undefined),3.36%,1.76%,4.74%,1.18%,0.595%
Cn1nccc1C(O)c1cc2n(n1)CCN(CC(=O)NCc1ccco1)C2 (centres undefined),-4.05%,-8.64%,-1.89%,-11.4%,-8.34%
CNC(=O)N1CCC(C2CCN(Cc3ccc(Br)o3)C2)CC1 (centres undefined),-4.29%,-8.68%,-38.2%,-12.6%,-12.6%
Cc1ccccc1CN1C(=O)c2cc3occc3n2CC1(C)C(=O)NC1CCCCCCC1 (centres undefined),-5.94%,3.5%,-2.49%,-5.86%,-5.46%
Cc1ccc2[nH]c(CCC(=O)N3CC[C@H](CO)[C@H](O)C3)nc2c1C,-1.62%,-3.03%,1.59%,-6.57%,-5.46%
CCOC(=O)c1cc2n(n1)CC(C)(C(=O)NC1CCCCCC1)N(Cc1ccc(F)cc1)C2=O (centres undefined),8.04%,3.01%,7.9%,1.45%,7.36%
O=C(Nc1nn(-c2cccc(F)c2)c2cccc(N3CCOCC3)c12)C1CCC1,-8.53%,-2.47%,-6.91%,-11%,-3.58%
CCC(C)NC(=O)c1ccc2c(=O)n(C)c3nn(CC(=O)Nc4ccccc4)c(=O)n3c2c1 (centres undefined),3.67%,0.214%,3.17%,1.32%,3.68%
COc1cccc(CCN(Cc2cccc(C)c2)C(=O)[C@H]2CCC[C@H](O)C2)c1,-6.83%,-7.94%,-4.37%,-15%,-7.29%
CCCC1c2ccc(C)n2CCN1C(=O)Nc1ccc(C)c(C)c1 (centres undefined),-3.63%,0.602%,-2.29%,6.12%,-3.75%
Cc1cc2c(c(=O)[nH]1)OC(C(O)CC(C)C)O2 (centres undefined),-3.16%,-6.06%,4.78%,-18.9%,-20%
C[C@@H](NC(=O)[C@H](O)c1cc(F)cc(F)c1)C(=O)N[C@@H]1C(=O)N(C)c2ccccc2-c2ccccc21,-9.32%,-5.05%,-1.14%,-31.7%,-6.82%
